Assay [1] addresses endogenous LAP1B of rat brain (rat (endogenous in brain)) (UniProt Q5PQX1). Briefly: co-IP; rat cortex extracts in non-denaturing lysis buffer (50 mM Tris-HCl pH 8.0, 120 mM NaCl, 4% CHAPS); PP1γ, PP1α or LAP1 antibodies on Dynabeads Protein G.
For assay [2], the target named is GAL4-binding domain PP1γ1 (pAS2-1-PP1γ1) (UniProt P36873). Kind of assay: two-hybrid; yeast co-transformation in AH109: pAS2-1-PP1 baits with pACT2-LAP1B or deletion mutants; HIS3, ADE2 and MEL1 reporters; SD/QDO with X-α-Gal, 30°C, 2-4 days.
For assay [3], the target named is 6×His-tag LAP1B-BM1 (pET-28c) (human) (UniProt Q5JTV8). Kind of assay: far-Western, overlay or dot blot; bacterial extracts with 6×His-LAP1B constructs separated on 10% SDS-PAGE, transferred to nitrocellulose, overlaid with 1 µg/mL purified recombinant PP1γ1; bound PP1γ1 detected with PP1γ antibody and ECL; only the binder purified.
Assay [4] concerns the target 6×His-tag LAP1B-BM1/2+TM (pET-28c) (human) (UniProt Q5JTV8). The assay is described as above.
Assay [5] concerns the target 6×His-tag full-length LAP1B (pET-28c) (human) (UniProt Q5JTV8). Described as above.
In assay [6] the target is 6×His-tag LAP1B-BM2 (pET-28c) (human) (UniProt Q5JTV8). The assay is described as above.
In assay [7] the target is purified recombinant PP1γ1 protein (UniProt P36873). Kind of assay: far-Western, overlay or dot blot; 250 ng purified recombinant PP1γ1 separated on 12% SDS-PAGE, transferred to nitrocellulose, overlaid with in vitro translated LAP1B or LAP1B (ΔA185); detected with LAP1 antibody and ECL; only the target purified.
In assay [8] the target is endogenous PP1γ of rat cortex (rat (endogenous in cortex)) (UniProt P63088). Briefly: co-IP; rat cortex extracts in non-denaturing lysis buffer (50 mM Tris-HCl pH 8.0, 120 mM NaCl, 4% CHAPS); PP1γ, PP1α or LAP1 antibodies on Dynabeads Protein G.
Assay [9] concerns the target GAL4-binding domain PP1γ2 (pAS2-1-PP1γ2) (UniProt P36873). Kind of assay: two-hybrid; yeast co-transformation in AH109: pAS2-1-PP1 baits with pACT2-LAP1B or deletion mutants; HIS3, ADE2 and MEL1 reporters; SD/QDO with X-α-Gal, 30°C, 2-4 days.
Assay [10] has as its target GAL4-binding domain PP1γ1 (pAS2-1-PP1γ1) (UniProt P36873). Kind of assay: two-hybrid; yeast two-hybrid screens of a human brain cDNA library with PP1α, PP1γ1 and PP1γ2 as baits.
The target of assay [11] is GAL4-binding domain PP1γ2 (pAS2-1-PP1γ2) (UniProt P36873). The assay is described as above.

By UniProt entry, the sequences of proteins in these tests, tags left out. Where a name states a change or a piece, a line headed by the entry shows the natural chain unless it says otherwise. Chains listed by the source or under a name are the forms on record and can include a tag or linker. Residues count along the entry.
UniProt Q5PQX1: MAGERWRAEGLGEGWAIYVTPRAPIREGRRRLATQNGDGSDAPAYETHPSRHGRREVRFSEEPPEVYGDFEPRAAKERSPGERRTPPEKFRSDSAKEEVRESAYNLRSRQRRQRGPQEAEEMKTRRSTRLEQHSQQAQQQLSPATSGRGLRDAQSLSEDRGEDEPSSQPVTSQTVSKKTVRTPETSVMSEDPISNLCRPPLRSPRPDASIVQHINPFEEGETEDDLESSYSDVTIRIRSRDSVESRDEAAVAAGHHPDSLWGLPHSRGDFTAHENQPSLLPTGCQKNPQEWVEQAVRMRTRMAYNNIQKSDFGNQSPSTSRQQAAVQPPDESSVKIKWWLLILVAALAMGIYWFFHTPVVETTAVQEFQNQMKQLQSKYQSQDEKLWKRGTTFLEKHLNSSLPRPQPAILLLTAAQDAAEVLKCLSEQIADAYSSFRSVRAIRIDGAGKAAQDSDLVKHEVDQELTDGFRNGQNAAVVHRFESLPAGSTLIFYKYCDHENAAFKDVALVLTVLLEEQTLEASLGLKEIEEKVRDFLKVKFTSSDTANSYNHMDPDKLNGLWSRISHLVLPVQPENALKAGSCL
UniProt P36873: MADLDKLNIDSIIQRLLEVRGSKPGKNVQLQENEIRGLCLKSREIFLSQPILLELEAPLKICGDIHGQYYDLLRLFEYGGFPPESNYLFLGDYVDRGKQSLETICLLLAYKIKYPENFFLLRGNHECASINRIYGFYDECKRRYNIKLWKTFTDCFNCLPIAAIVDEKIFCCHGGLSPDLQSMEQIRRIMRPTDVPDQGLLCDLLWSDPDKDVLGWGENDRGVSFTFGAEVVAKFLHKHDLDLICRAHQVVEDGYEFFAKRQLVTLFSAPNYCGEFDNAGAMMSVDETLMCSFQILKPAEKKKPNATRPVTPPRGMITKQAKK
GAL4-binding domain PP1γ2 (pAS2-1-PP1γ2) (P36873, form named): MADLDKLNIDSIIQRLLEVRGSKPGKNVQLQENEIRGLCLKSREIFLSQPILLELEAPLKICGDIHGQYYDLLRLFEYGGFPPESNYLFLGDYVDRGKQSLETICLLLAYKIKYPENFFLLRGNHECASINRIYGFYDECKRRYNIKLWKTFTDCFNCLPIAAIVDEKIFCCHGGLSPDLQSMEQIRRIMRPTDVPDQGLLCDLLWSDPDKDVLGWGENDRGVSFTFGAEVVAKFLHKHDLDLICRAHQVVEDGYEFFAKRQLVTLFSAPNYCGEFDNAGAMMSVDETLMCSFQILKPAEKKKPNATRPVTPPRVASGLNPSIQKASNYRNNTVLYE
GAL4 activation domain LAP1B-BM3 (pACT-BM3) (Q5JTV8, residues 237-583): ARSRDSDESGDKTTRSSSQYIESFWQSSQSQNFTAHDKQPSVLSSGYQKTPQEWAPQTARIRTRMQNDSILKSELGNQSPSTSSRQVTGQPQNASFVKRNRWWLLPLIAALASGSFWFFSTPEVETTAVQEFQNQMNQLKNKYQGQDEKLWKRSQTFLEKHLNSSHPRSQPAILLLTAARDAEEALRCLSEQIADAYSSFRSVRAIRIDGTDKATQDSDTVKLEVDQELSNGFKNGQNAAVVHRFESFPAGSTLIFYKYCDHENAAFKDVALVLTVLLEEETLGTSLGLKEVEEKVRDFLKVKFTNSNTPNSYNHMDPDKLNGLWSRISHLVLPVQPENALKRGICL
GAL4 activation domain LAP1B-BM1/2 (pACT-BM1/2) (Q5JTV8-3, form named): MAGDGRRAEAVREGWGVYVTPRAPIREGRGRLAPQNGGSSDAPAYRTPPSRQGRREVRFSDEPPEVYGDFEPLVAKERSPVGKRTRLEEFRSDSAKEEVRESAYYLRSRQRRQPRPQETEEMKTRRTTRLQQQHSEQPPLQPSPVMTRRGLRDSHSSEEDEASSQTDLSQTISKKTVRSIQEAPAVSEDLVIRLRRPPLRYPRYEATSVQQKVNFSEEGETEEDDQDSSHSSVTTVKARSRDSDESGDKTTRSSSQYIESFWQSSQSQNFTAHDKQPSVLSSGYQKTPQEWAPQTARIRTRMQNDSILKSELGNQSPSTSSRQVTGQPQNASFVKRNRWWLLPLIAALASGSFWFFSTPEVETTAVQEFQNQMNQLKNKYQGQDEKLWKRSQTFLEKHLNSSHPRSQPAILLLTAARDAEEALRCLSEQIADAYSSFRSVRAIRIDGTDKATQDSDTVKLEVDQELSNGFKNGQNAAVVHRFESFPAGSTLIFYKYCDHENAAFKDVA
GAL4 activation domain LAP1B-BM1 (pACT-BM1) (Q5JTV8-3, form named): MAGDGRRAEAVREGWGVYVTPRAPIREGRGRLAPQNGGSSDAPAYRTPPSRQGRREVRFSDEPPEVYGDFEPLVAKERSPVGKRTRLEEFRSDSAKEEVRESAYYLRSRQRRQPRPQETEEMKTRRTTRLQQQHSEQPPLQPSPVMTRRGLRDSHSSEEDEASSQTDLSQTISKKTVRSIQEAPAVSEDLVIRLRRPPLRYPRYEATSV
6×His-tag LAP1B-BM1/2+TM (pET-28c) (Q5JTV8-3, form named): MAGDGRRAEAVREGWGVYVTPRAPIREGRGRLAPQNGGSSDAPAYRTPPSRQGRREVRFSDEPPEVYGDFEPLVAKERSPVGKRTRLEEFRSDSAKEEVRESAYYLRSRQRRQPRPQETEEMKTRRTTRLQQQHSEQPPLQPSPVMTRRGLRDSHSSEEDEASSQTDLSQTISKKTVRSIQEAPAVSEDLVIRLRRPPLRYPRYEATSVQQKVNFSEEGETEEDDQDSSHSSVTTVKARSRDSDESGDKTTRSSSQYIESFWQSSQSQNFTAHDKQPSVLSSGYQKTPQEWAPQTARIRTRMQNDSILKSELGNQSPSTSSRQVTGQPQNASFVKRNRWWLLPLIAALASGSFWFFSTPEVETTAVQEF
GAL4 activation domain LAP1B (pACT2-LAP1B) (Q5JTV8-3, form named): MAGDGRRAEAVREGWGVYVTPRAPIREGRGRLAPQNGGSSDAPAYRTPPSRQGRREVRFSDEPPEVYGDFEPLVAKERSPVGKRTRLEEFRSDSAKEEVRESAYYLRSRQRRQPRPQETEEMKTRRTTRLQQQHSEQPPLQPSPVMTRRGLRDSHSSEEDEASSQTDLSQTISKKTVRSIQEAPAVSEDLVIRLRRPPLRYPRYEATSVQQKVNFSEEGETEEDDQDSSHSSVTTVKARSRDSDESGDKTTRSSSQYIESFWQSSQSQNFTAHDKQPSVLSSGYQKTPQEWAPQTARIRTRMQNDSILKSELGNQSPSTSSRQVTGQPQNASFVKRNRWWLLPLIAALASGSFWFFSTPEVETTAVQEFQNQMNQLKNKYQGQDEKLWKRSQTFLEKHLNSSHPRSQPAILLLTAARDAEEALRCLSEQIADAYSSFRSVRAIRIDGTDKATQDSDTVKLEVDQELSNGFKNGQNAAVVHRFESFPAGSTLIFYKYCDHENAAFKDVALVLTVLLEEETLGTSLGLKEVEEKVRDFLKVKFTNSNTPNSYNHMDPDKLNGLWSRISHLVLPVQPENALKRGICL
GAL4 activation domain LAP1B-BM2 (pACT-BM2) (Q5JTV8-3, form named): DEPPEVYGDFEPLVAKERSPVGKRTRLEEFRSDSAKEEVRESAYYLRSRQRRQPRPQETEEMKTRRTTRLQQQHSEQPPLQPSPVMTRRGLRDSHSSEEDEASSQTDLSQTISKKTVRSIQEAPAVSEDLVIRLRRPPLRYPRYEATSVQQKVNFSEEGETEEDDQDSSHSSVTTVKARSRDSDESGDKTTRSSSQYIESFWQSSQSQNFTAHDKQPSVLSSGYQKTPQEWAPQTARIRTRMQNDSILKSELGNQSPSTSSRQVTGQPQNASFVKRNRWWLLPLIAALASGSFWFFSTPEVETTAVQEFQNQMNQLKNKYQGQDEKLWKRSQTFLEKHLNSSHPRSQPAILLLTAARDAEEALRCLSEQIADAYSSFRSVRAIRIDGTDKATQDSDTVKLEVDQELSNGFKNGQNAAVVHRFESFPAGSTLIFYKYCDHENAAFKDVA
UniProt P63088: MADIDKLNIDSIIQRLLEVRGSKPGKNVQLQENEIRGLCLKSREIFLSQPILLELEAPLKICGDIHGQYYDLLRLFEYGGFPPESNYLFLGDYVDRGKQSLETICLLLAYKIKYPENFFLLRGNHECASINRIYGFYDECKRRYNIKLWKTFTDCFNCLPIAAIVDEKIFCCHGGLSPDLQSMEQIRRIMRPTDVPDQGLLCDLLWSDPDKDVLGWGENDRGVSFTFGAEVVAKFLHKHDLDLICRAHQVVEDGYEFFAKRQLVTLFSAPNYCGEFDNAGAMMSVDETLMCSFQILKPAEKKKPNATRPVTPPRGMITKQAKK

Read-outs that look alike come from different tables or passages of the source. These are yes or no findings as the source states them, for the method shown. For some of these results: Binding seen in cells or lysates may run through a third protein. Some results given as binding are weak or reduced against the parent protein; the word gives no strength.

For “endogenous PP1γ of rat cortex (from UniProt P63088 1-323) (enzyme)”, the binding result in assay [1] was “binds”.

With “GAL4 activation domain LAP1B-BM1/2 (pACT-BM1/2) (from UniProt Q5JTV8-3 1-508) (domain or fragment)”, the binding result in assay [2] is reported as “binds”.

With “purified recombinant PP1γ1 protein (from UniProt P36873-1 1-323) (enzyme)”, the binding result is listed as “binds” in assay [3]; “binds” in assay [4]; “binds” in [4] (record 2); “binds” in assay [5]; “no binding (tested: 1 µg/mL PP1γ1)” in assay [6].

Turning to LAP1B-IVT (from UniProt Q5JTV8-3 1-584), the binding entry in [7] is recorded as “binds”.

“GAL4 activation domain LAP1B-BM1 (pACT-BM1) (from UniProt Q5JTV8-3 1-209) (domain or fragment)”: in assay [2], the binding result is recorded as “binds”.

Turning to “GAL4 activation domain LAP1B-BM3 (pACT-BM3) (from UniProt Q5JTV8-3 238-584) (domain or fragment)”, the binding result in assay [2] is “no binding”.

Consider “GAL4 activation domain LAP1B-BM2 (pACT-BM2) (from UniProt Q5JTV8-3 61-508) (domain or fragment)”, for which the binding entry in [2] is recorded as “no binding”.

For “endogenous LAP1B of rat brain (from UniProt Q5PQX1 1-583)”, in assay [8], the binding entry is “binds”.

For the substance “GAL4 activation domain LAP1B (pACT2-LAP1B) (from UniProt Q5JTV8-3 1-584)”, the binding entry in assay [2], in [9], in assay [10] and in [11] was “binds” throughout.

The values above are taken from article PMC3792071.
